Laboratory results: PubChem BioAssay AID1768 (National Center for Advancing Translational Sciences (NCATS), 2009)
Where “and” joins values, the source holds several entries; their conditions need not be identical. Equal values may be shown once. Hit rate of the full screen: of about 270,000 compounds, about 620 (0.23%) were called active. The shares of active, inactive and inconclusive entries below differ from those in the screen. The call rests on the fitted dose curve; in most records, active means well fitted inhibition curve with a large enough effect in the polarisation, with a control signal flat (not every such curve was filed as active); inconclusive means small, poorly fitted or top-dose-only effect, or effect the other way, or a change in a side signal; inactive means no such curve, though single readings can be large or run the other way; the % refers to the polarisation. Where the call is inconclusive, the potency comes from a doubtful curve fit. “Side channel” marks fits to a control or component signal instead of the main read-out.
Potency means the concentration at half of the fitted maximal effect; tags describe the fitted curve by direction and shape or compound fluorescence and quenching.
Wherever FP activity change, negative = inhibition is given: % of control where 0% means no effect.

The compounds below were run against Menin (Homo sapiens) (UniProt O00255) (assay: qHTS Assay for Inhibitors Targeting the Menin-MLL Interaction in MLL Related Leukemias: Competition With Texas Red Labeled MLL-derived Mutant Peptide). Settings: fluorescence polarization; FP activity change, negative = inhibition: at 61.6 µM (top of the series).
Sequence of UniProt O00255 (O00255 whole entry, looked up): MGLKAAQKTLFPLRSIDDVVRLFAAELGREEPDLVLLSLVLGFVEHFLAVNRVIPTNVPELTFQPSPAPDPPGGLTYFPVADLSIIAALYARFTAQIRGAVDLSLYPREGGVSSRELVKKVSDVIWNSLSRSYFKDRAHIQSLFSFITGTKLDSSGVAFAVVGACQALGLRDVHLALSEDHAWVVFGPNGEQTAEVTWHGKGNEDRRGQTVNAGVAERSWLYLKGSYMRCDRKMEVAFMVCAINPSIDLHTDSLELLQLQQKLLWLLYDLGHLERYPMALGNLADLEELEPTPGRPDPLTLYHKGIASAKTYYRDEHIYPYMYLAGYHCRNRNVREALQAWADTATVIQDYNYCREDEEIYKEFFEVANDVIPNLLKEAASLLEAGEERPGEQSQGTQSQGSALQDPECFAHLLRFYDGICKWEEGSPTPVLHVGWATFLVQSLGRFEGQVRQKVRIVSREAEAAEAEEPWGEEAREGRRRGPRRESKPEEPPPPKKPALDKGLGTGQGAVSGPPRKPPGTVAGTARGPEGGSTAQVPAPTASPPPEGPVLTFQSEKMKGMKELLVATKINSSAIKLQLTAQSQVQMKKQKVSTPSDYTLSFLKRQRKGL
For `COc1ccc(OC)c(NC(=O)c2nc3ccccc3s2)c1`, the Potency was inconclusive: 10 µM [quencher, side channel, partial curve].
In the case of `Cc1cnc(CNc2ncncc2-c2ccoc2)cn1`, the Potency is reported as inconclusive: 10 µM [inhibitor, partial curve, poor fit].
With `O=C(C1=C[C@H](c2ccccc2)C[C@H](OCCCCO)O1)N1CCN(Cc2ccc3c(c2)OCO3)CC1` the Potency was inconclusive: 25.1 µM [inhibitor, partial curve, poor fit].
With `CCOC(=O)c1c2c(c(=S)n(-c3ccccc3)c1N)CCC2` the Potency was inconclusive: 22.4 µM [quencher, side channel, single point].
For `Cc1cccc(N=Nc2c(O)[nH]c3ccc(F)cc23)c1`, the Potency was inconclusive: 11.2 µM [quencher, side channel, partial curve].
In the case of `O=C1OC2(c3ccccc31)c1cc(I)c(O)c(I)c1Oc1c2cc(I)c(O)c1I`, the Potency is reported as inconclusive: 2.51 µM [fluorescent, side channel, full curve].
`COC(=O)[C@H](C)[C@@H]1C[C@@]1(C)[C@@H](NC(=O)OCc1ccccc1)c1ccccc1` was tested, and the Potency was inconclusive: 10 µM [fluorescent, side channel, partial curve].
`O=C(Nc1nnc(S(=O)(=O)Nc2ccccc2)s1)c1ccccc1Cl` was tested, and the Potency was inconclusive: 20 µM [quencher, side channel, partial curve].
In the case of `Cc1cc(SCC(=O)NCCC2=CCCCC2)nc2ccccc12`, the Potency is reported as inconclusive: 22.4 µM [inhibitor, partial curve].
For `COC(=O)c1c(C(=O)OC)c2ccccn2c1C(=O)c1ccc([N+](=O)[O-])cc1`, the “FP activity change, negative = inhibition” value was inactive: 7.04%.
In the case of `Cc1nn(CC(=O)Nc2ccc(C(C)C)cc2)c(C)c1[N+](=O)[O-]`, the Potency is reported as inconclusive: 25.1 µM [quencher, side channel, partial curve].
In the case of `O=C(Cn1nc(C(F)F)cc1C(F)F)NNC(=S)Nc1ccc([N+](=O)[O-])cc1`, the Potency is reported as inconclusive: 17.8 µM [quencher, side channel, partial curve].
In the case of `Cc1oc(-c2cccc(Cl)c2)nc1CN1CCCC(C(=O)NCc2ccco2)C1` (configuration not stated), the Potency is reported as inconclusive: 25.1 µM [fluorescent, side channel, single point].
`CSCCC(=O)N1CCCC(N2CCN(c3cccc(C(F)(F)F)c3)CC2)C1` (configuration not stated) was tested, and the Potency was inconclusive: 11.2 µM [inhibitor, partial curve, poor fit].
With `Fc1cccc(-n2cc(-c3ccccc3)c3c(=S)nc[nH]c32)c1` the Potency was inconclusive: 31.6 µM [quencher, side channel, single point].
In the case of `Cc1ccc(NC2Sc3ccccc3NC2=O)cc1` (configuration not stated), the Potency is reported as inconclusive: 14.1 µM [quencher, side channel, partial curve].
For `COc1ccc(Nc2nnc(SCC(=O)Nc3ccc4[nH]c(=O)[nH]c4c3)s2)cc1`, the Potency was inconclusive: 31.6 µM [quencher, side channel, single point].
`Cc1ccc(-n2ncc3c2CCCC3NC(=O)c2csnn2)cc1C` (configuration not stated) was tested, and the “FP activity change, negative = inhibition” value was inactive: -1.18%.
With `Cc1[nH]n(-c2ccccc2)c(=O)c1N=Nc1cccc(Cl)c1` the Potency was inconclusive: 28.2 µM [quencher, side channel, single point].
For `CCCn1c(=N)n(CC(=O)c2ccc(Cl)cc2)c2ccccc21`, the Potency was inconclusive: 15.8 µM [fluorescent, side channel, partial curve].
`CO/N=C/c1ccc(N2CCN(C(=O)c3ccc(F)cc3)CC2)c([N+](=O)[O-])c1` was tested, and the “FP activity change, negative = inhibition” value was inactive: -21.5%.
`CCCCCCCCCCCCCCCCN` was tested, and the “FP activity change, negative = inhibition” value was inactive: 4.24%.
For `N#Cc1ccccc1NC(=O)C1SC(=Nc2ccccc2)C(C(=O)Nc2ccc(Cl)cc2)=C1N` (configuration not stated), the Potency was inconclusive: 7.94 µM [quencher, side channel, partial curve].
With `Cc1cc(C(=O)Nc2nc3c(C)cccc3s2)c(C)o1` the Potency was inconclusive: 31.6 µM [inhibitor, partial curve].
`CCc1ccc2c(CN3CCC(C(=O)OC)CC3)cc(=O)oc2c1` was tested, and the Potency was inconclusive: 8.91 µM [inhibitor, partial curve, poor fit].
`C=CCN(C(=O)Cn1nnc2ccccc21)C(C(=O)NCCOC)c1ccc(OC)cc1OC` (configuration not stated) was tested, and the Potency was inconclusive: 28.2 µM [fluorescent, side channel, single point].
In the case of `COc1cc(O)c2c(c1)oc(=O)c1c3cc(O)c(O)cc3oc21`, the Potency is reported as inconclusive: 12.6 µM [quencher, side channel, partial curve] and inconclusive: 5.01 µM [quencher, side channel, partial curve].
For `O=c1[nH]c(O)c(/C=C2\C=Nc3ccc(Br)cc32)[nH]1`, the Potency was inconclusive: 11.2 µM [quencher, side channel, partial curve].
`O=C(N/N=C/C=C/c1ccccc1[N+](=O)[O-])c1cc(-c2ccccc2)n[nH]1` was tested, and the Potency was inconclusive: 8.91 µM [quencher, side channel, partial curve].
`COc1ccc(CCN2CCCn3c2nc2c3c(=O)n(CC(C)C)c(=O)n2C)cc1OC` was tested, and the Potency was inconclusive: 4.47 µM [inhibitor, partial curve].
For `Oc1ccc(/C=N/Nc2nc(N3CCCCCC3)nc(N3CCCCCC3)n2)c(O)c1`, the Potency was inconclusive: 10 µM [quencher, side channel, partial curve].
With `COC(=O)c1ccc(-c2csc(NC(=O)c3ccc(S(=O)(=O)N4CCc5ccccc5C4)cc3)n2)cc1` the Potency was inconclusive: 7.08 µM [inhibitor, partial curve].
`CC(=O)c1ccc(NC(=O)c2cc3nc4c(c(C(F)(F)F)n3n2)CCCC4)cc1` was tested, and the Potency was inconclusive: 35.5 µM [quencher, side channel, single point].
With `C=Cc1ccc(COC(=O)c2cn(CC)c3nc(C)ccc3c2=O)cc1` the Potency was inconclusive: 22.4 µM [fluorescent, side channel, partial curve].
For `Clc1ccc(-c2cc(COc3ccc4ccccc4c3)no2)cc1`, the Potency was inconclusive: 11.2 µM [inhibitor, partial curve, poor fit].
For `O=C(Nc1cccc(Cl)c1)Nc1cnccn1`, the Potency was inconclusive: 39.8 µM [inhibitor, single point].
In the case of `N#CC1=C(N)N(c2ccccc2)C(c2cccc([N+](=O)[O-])c2)C1(C#N)C#N` (configuration not stated), the Potency is reported as inconclusive: 20 µM [quencher, side channel, partial curve].
In the case of `Cc1ccc(NC(=O)CC2S/C(=N/N=C/c3c[nH]c4ccccc34)NC2=O)cc1` (configuration not stated), the Potency is reported as inconclusive: 17.8 µM [quencher, side channel, partial curve].
In the case of `CC(C)N(C(=O)Nc1ccc2nsnc2c1)C(C)C`, the Potency is reported as inconclusive: 10 µM [quencher, side channel, partial curve].
With `CC(C)(C)c1ccc(C(=O)N2CCCN(C(=O)c3ccc(C(C)(C)C)cc3)CC2)cc1` the Potency was inconclusive: 12.6 µM [fluorescent, side channel, partial curve].
In the case of `C=Cc1c(C)c2cc3[nH]c(cc4nc(cc5nc(cc1[nH]2)C(C)=C5CCC(=O)O)C(CCC(=O)O)=C4C)c(C)c3C=C`, the Potency is reported as inconclusive: 17.8 µM [fluorescent, side channel, partial curve] and inconclusive: 20 µM [fluorescent, side channel, partial curve] and inconclusive: 11.2 µM [fluorescent, side channel, partial curve].
With `CCOc1ccc(OCC)c(S(=O)(=O)NCCOC23CC4CC(CC(C4)C2)C3)c1` the Potency was inconclusive: 22.4 µM [fluorescent, side channel, partial curve].
With `CCc1ccc(Nc2nc(N)nc(CSc3nc4ccccc4s3)n2)cc1` the Potency was inconclusive: 10 µM [quencher, side channel, partial curve].
`C=CCc1cccc(/C=N/NC(=O)c2ccccc2OC)c1O` was tested, and the Potency was inconclusive: 15.8 µM [quencher, side channel, partial curve].
For `Cc1cc(OC(C)C(=O)N(Cc2ccco2)C2CCS(=O)(=O)C2)ccc1Cl` (configuration not stated), the Potency was inconclusive: 39.8 µM [inhibitor, partial curve].
In the case of `CCOc1cc(/C=C2/C(=O)N(c3ccccc3)N=C2C)ccc1OC(=O)c1cccs1`, the Potency is reported as inconclusive: 12.6 µM [quencher, side channel, partial curve].
In the case of `c1ccc(-c2nnc(N3CCN(c4ccccn4)CC3)c3ccccc23)cc1`, the Potency is reported as inconclusive: 10 µM [inhibitor, partial curve].
In the case of `COc1cc(C(=O)N[C@H](C(=O)NC(C)C23CC4CC(CC(C4)C2)C3)C(C)C)cc(OC)c1OC` (some centres not stated), the Potency is reported as inconclusive: 17.8 µM [fluorescent, side channel, partial curve].
With `Cc1nnsc1C(=O)N/N=C/c1ccc2ccccc2c1O` the Potency was inconclusive: 7.94 µM [quencher, side channel, partial curve].
`O=C(O)CC1S/C(=N/N=C/c2ccc(-c3ccc(Cl)c([N+](=O)[O-])c3)o2)NC1=O` (configuration not stated) was tested, and the Potency was inconclusive: 20 µM [quencher, side channel, partial curve].
`C[N+](C)(C)CCN(Cc1ccc(Cl)cc1)c1ccccn1` was tested, and the Potency was inconclusive: 22.4 µM [inhibitor, single point].
For `CCOC(=O)C1CCCCN1C(=O)c1oc2c(Cl)cc(C)cc2c1C` (configuration not stated), the Potency was inconclusive: 20 µM [fluorescent, side channel, partial curve].
